Data as given in publication PMC2719694.
Where a chain is given by its changes, count along the chain named. These are yes or no findings as the source states them, for the method shown. Binding seen in cells or lysates may run through a third protein. Some results given as binding are weak or reduced against the parent protein; the word gives no strength. Sequences can lack the tags named with a protein.

Sequences of proteins named here, by UniProt entry; tags and fusion partners are left off.
UniProt P37383: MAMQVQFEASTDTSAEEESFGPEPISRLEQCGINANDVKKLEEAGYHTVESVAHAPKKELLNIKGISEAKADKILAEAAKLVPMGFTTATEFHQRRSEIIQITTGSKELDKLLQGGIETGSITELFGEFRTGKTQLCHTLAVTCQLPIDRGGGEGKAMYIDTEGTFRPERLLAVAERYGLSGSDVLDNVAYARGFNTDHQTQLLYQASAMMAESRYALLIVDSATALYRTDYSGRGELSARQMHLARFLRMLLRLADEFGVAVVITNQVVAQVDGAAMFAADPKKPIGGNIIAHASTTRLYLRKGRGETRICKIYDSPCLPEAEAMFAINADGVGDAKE

Tests used:
[1] = target: T1, myc-tagged GgBrca2 residues 3152-3398, wild type (Gallus gallus) (UniProt Q8QFV6); assay: condition: only nocodazole-arrested cells (120 ng/ml nocodazole overnight); co-IP; immunoprecipitation of the myc-tagged GgBrca2 fragment from extracts of transfected DT40 cells arrested in mitosis with nocodazole (120 ng/ml overnight), Western blot for GgRad51 and myc
T1 sequence: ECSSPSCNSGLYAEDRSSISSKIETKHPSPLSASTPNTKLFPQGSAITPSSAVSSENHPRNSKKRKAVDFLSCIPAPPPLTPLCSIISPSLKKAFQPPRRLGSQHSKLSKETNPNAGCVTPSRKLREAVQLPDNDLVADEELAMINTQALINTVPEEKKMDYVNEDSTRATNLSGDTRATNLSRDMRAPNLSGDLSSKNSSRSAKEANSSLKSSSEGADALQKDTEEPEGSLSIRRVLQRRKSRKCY

[2] = target: T1, myc-tagged GgBrca2 residues 3152-3398, wild type (Gallus gallus); assay: co-IP; immunoprecipitation of the myc-tagged GgBrca2 fragment from extracts of transfected DT40 cells, Western blot for GgRad51 and myc; asynchronous (interphase) cells, also with roscovitine 30-120 min (50 uM), and nocodazole-arrested cells treated with roscovitine
[3] = target: T2, myc-tagged GgBrca2 residues 3152-3398, T3232A (Gallus gallus) (UniProt Q8QFV6); assay: as above
T2 sequence: T1 sequence with T81A

[4] = target: T3, myc-tagged GgBrca2 residues 3152-3398, P3240L (Gallus gallus) (UniProt Q8QFV6); assay: as above
T3 sequence: T1 sequence with P89L

[5] = target: T4, myc-tagged GgBrca2 residues 3152-3398, S3239E (Gallus gallus) (UniProt Q8QFV6); assay: as above
T4 sequence: T1 sequence with S88E

[6] = target: T5, myc-tagged GgBrca2 residues 3152-3398, S3239A (Gallus gallus) (UniProt Q8QFV6); assay: as above
T5 sequence: T1 sequence with S88A

[7] = target: T6, myc-tagged GgBrca2 residues 3152-3398, T3232E (Gallus gallus) (UniProt Q8QFV6); assay: as above
T6 sequence: T1 sequence with T81E

[8] = target: T2, myc-tagged GgBrca2 residues 3152-3398, T3232A (Gallus gallus); assay: co-IP; immunoprecipitation of the myc-tagged GgBrca2 fragment from extracts of transfected DT40 cells arrested in mitosis with nocodazole (120 ng/ml overnight), Western blot for GgRad51 and myc
[9] = target: T3, myc-tagged GgBrca2 residues 3152-3398, P3240L (Gallus gallus); assay: as above
[10] = target: T4, myc-tagged GgBrca2 residues 3152-3398, S3239E (Gallus gallus); assay: as above
[11] = target: T5, myc-tagged GgBrca2 residues 3152-3398, S3239A (Gallus gallus); assay: as above

For “Gallus gallus Rad51 (from UniProt P37383 1-339)”, the binding [1] was “no binding”, the binding [2] was “binds” and the binding [3] was “binds”. The binding [4] was “no binding”, the binding [5] was “no binding” and the binding [6] was “no binding”. For the same substance, the binding [7] was “no binding”, the binding [8] was “binds” and the binding [9] was “no binding”. For the same substance, the binding [10] was “no binding” and the binding [11] was “no binding”.
